# Assay results: PMC12820563
# This is one part of the list. The list includes weakly bound sequences.
# Target: T1, MBP-FoxP3dN (UniProt Q99JB6)
# T1 sequence: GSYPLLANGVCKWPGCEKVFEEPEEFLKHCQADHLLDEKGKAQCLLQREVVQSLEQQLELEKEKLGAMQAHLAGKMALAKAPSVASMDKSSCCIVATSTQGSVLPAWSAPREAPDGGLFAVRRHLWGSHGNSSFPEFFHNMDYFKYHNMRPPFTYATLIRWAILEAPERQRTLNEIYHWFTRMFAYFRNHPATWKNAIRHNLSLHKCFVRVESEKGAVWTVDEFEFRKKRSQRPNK
# Assay: PD-seq (MBP pull-down with sequencing)
# Settings: 20 mM Tris-HCl pH 7.5, 100 mM NaCl, 1.5 mM MgCl2, 0.4 uM protein, 0.1 uM dsDNA library, 30 min, room temperature, amylose pull-down; high values mean tight binding; double strand, one strand shown
row,Sequence,binding signal (RPM ratio (pull-down/input))
1,GATGATTGTTCTCCCAGCTGATGAATTGGAACGATCGAGTAAACAAATTTTCCTAATCTTTCTGTTCAAGCGCCATCTAC,0.24
2,GATGATTGTTCTCCCAGCTGATGAATTCTAGTTTTCGAGTAAACAAATTTTCCTAATCTTTCTGTTCAAGCGCCATCTAC,0.554
3,GATGATTGTTCTCCCAGCTGATGAATTTCTGACGTCGAGTAAACAAATTTTCCTAATCTTTCTGTTCAAGCGCCATCTAC,0.261
4,GATGATTGTTCTCCCAGCTGATGAATTGGGTCAATCGAGTAAACAAATTTTCCTAATCTTTCTGTTCAAGCGCCATCTAC,0.294
5,GATGATTGTTCTCCCAGCTGATGAATTGTGTGTCTCGAGTAAACAAATTTTCCTAATCTTTCTGTTCAAGCGCCATCTAC,3.93
6,GATGATTGTTCTCCCAGCTGATGAATTATGTTTATCGAGTAAACAAATTTTCCTAATCTTTCTGTTCAAGCGCCATCTAC,8.36
7,GATGATTGTTCTCCCAGCTGATGAATTGAGTGGTTCGAGTAAACAAATTTTCCTAATCTTTCTGTTCAAGCGCCATCTAC,1.05
8,GATGATTGTTCTCCCAGCTGATGAATTCTAGTCATCGAGTAAACAAATTTTCCTAATCTTTCTGTTCAAGCGCCATCTAC,0.443
9,GATGATTGTTCTCCCAGCTGATGAATTTGAAATGTCGAGTAAACAAATTTTCCTAATCTTTCTGTTCAAGCGCCATCTAC,0.369
10,GATGATTGTTCTCCCAGCTGATGAATTGATCCCGTCGAGTAAACAAATTTTCCTAATCTTTCTGTTCAAGCGCCATCTAC,0.234
11,GATGATTGTTCTCCCAGCTGATGAATTAGGAAATTCGAGTAAACAAATTTTCCTAATCTTTCTGTTCAAGCGCCATCTAC,0.517
12,GATGATTGTTCTCCCAGCTGATGAATTAATAAAATCGAGTAAACAAATTTTCCTAATCTTTCTGTTCAAGCGCCATCTAC,0.221
13,GATGATTGTTCTCCCAGCTGATGAATTCATTATCTCGAGTAAACAAATTTTCCTAATCTTTCTGTTCAAGCGCCATCTAC,1.12
14,GATGATTGTTCTCCCAGCTGATGAATTCAGGGTGTCGAGTAAACAAATTTTCCTAATCTTTCTGTTCAAGCGCCATCTAC,0.785
15,GATGATTGTTCTCCCAGCTGATGAATTGGGGTAGTCGAGTAAACAAATTTTCCTAATCTTTCTGTTCAAGCGCCATCTAC,0.459
16,GATGATTGTTCTCCCAGCTGATGAATTACTGTTGTCGAGTAAACAAATTTTCCTAATCTTTCTGTTCAAGCGCCATCTAC,1.49
17,GATGATTGTTCTCCCAGCTGATGAATTAGCCGCTTCGAGTAAACAAATTTTCCTAATCTTTCTGTTCAAGCGCCATCTAC,0.45
18,GATGATTGTTCTCCCAGCTGATGAATTGTTGTATTCGAGTAAACAAATTTTCCTAATCTTTCTGTTCAAGCGCCATCTAC,4.65
19,GATGATTGTTCTCCCAGCTGATGAATTTGTTGAATCGAGTAAACAAATTTTCCTAATCTTTCTGTTCAAGCGCCATCTAC,3.07
20,GATGATTGTTCTCCCAGCTGATGAATTTCCGCCATCGAGTAAACAAATTTTCCTAATCTTTCTGTTCAAGCGCCATCTAC,2.59
21,GATGATTGTTCTCCCAGCTGATGAATTTGCGTTATCGAGTAAACAAATTTTCCTAATCTTTCTGTTCAAGCGCCATCTAC,2.89

row,Sequence,binding signal (RPM ratio (pull-down/input))
1,GATGATTGTTCTCCCAGCTGATGAATTTGTCTCTTCGAGTAAACAAATTTTCCTAATCTTTCTGTTCAAGCGCCATCTAC,3.21
2,GATGATTGTTCTCCCAGCTGATGAATTGCGTTACTCGAGTAAACAAATTTTCCTAATCTTTCTGTTCAAGCGCCATCTAC,1.77
3,GATGATTGTTCTCCCAGCTGATGAATTGTCAGGCTCGAGTAAACAAATTTTCCTAATCTTTCTGTTCAAGCGCCATCTAC,0.295
4,GATGATTGTTCTCCCAGCTGATGAATTACTATAATCGAGTAAACAAATTTTCCTAATCTTTCTGTTCAAGCGCCATCTAC,0.397
5,GATGATTGTTCTCCCAGCTGATGAATTGACGTTATCGAGTAAACAAATTTTCCTAATCTTTCTGTTCAAGCGCCATCTAC,0.79
6,GATGATTGTTCTCCCAGCTGATGAATTACCTACTTCGAGTAAACAAATTTTCCTAATCTTTCTGTTCAAGCGCCATCTAC,0.328
7,GATGATTGTTCTCCCAGCTGATGAATTGTGCTCATCGAGTAAACAAATTTTCCTAATCTTTCTGTTCAAGCGCCATCTAC,0.776
8,GATGATTGTTCTCCCAGCTGATGAATTTTGGAGATCGAGTAAACAAATTTTCCTAATCTTTCTGTTCAAGCGCCATCTAC,0.228
9,GATGATTGTTCTCCCAGCTGATGAATTAGCGTGCTCGAGTAAACAAATTTTCCTAATCTTTCTGTTCAAGCGCCATCTAC,1.23
10,GATGATTGTTCTCCCAGCTGATGAATTGGGATTCTCGAGTAAACAAATTTTCCTAATCTTTCTGTTCAAGCGCCATCTAC,0.579
11,GATGATTGTTCTCCCAGCTGATGAATTGGTCTTGTCGAGTAAACAAATTTTCCTAATCTTTCTGTTCAAGCGCCATCTAC,0.435
12,GATGATTGTTCTCCCAGCTGATGAATTGGAAGGCTCGAGTAAACAAATTTTCCTAATCTTTCTGTTCAAGCGCCATCTAC,0.242
13,GATGATTGTTCTCCCAGCTGATGAATTCGAGGTTTCGAGTAAACAAATTTTCCTAATCTTTCTGTTCAAGCGCCATCTAC,0.563
14,GATGATTGTTCTCCCAGCTGATGAATTTAGTCGATCGAGTAAACAAATTTTCCTAATCTTTCTGTTCAAGCGCCATCTAC,0.436
15,GATGATTGTTCTCCCAGCTGATGAATTCATCACCTCGAGTAAACAAATTTTCCTAATCTTTCTGTTCAAGCGCCATCTAC,1.36
16,GATGATTGTTCTCCCAGCTGATGAATTAACGTTATCGAGTAAACAAATTTTCCTAATCTTTCTGTTCAAGCGCCATCTAC,0.715
17,GATGATTGTTCTCCCAGCTGATGAATTAGTACAGTCGAGTAAACAAATTTTCCTAATCTTTCTGTTCAAGCGCCATCTAC,0.484
18,GATGATTGTTCTCCCAGCTGATGAATTGTCGCATTCGAGTAAACAAATTTTCCTAATCTTTCTGTTCAAGCGCCATCTAC,6.14
19,GATGATTGTTCTCCCAGCTGATGAATTTCAGTCATCGAGTAAACAAATTTTCCTAATCTTTCTGTTCAAGCGCCATCTAC,0.551
20,GATGATTGTTCTCCCAGCTGATGAATTAGAAGTGTCGAGTAAACAAATTTTCCTAATCTTTCTGTTCAAGCGCCATCTAC,0.403
21,GATGATTGTTCTCCCAGCTGATGAATTGAACCTGTCGAGTAAACAAATTTTCCTAATCTTTCTGTTCAAGCGCCATCTAC,0.327

row,Sequence,binding signal (RPM ratio (pull-down/input))
1,GATGATTGTTCTCCCAGCTGATGAATTATGAGCGTCGAGTAAACAAATTTTCCTAATCTTTCTGTTCAAGCGCCATCTAC,0.726
2,GATGATTGTTCTCCCAGCTGATGAATTCGACATTTCGAGTAAACAAATTTTCCTAATCTTTCTGTTCAAGCGCCATCTAC,0.818
3,GATGATTGTTCTCCCAGCTGATGAATTTGGGCTTTCGAGTAAACAAATTTTCCTAATCTTTCTGTTCAAGCGCCATCTAC,1.02
4,GATGATTGTTCTCCCAGCTGATGAATTGTATTCATCGAGTAAACAAATTTTCCTAATCTTTCTGTTCAAGCGCCATCTAC,2.02
5,GATGATTGTTCTCCCAGCTGATGAATTTTATTCTTCGAGTAAACAAATTTTCCTAATCTTTCTGTTCAAGCGCCATCTAC,0.491
6,GATGATTGTTCTCCCAGCTGATGAATTAAGTGCATCGAGTAAACAAATTTTCCTAATCTTTCTGTTCAAGCGCCATCTAC,1.71
7,GATGATTGTTCTCCCAGCTGATGAATTAAGCTCTTCGAGTAAACAAATTTTCCTAATCTTTCTGTTCAAGCGCCATCTAC,0.47
8,GATGATTGTTCTCCCAGCTGATGAATTCTCCGTGTCGAGTAAACAAATTTTCCTAATCTTTCTGTTCAAGCGCCATCTAC,0.267
9,GATGATTGTTCTCCCAGCTGATGAATTGTCAAGGTCGAGTAAACAAATTTTCCTAATCTTTCTGTTCAAGCGCCATCTAC,0.251
10,GATGATTGTTCTCCCAGCTGATGAATTGTGCGCCTCGAGTAAACAAATTTTCCTAATCTTTCTGTTCAAGCGCCATCTAC,2.92
11,GATGATTGTTCTCCCAGCTGATGAATTACCTCAGTCGAGTAAACAAATTTTCCTAATCTTTCTGTTCAAGCGCCATCTAC,0.231
12,GATGATTGTTCTCCCAGCTGATGAATTGCTGTGCTCGAGTAAACAAATTTTCCTAATCTTTCTGTTCAAGCGCCATCTAC,0.947
13,GATGATTGTTCTCCCAGCTGATGAATTCTATTTTTCGAGTAAACAAATTTTCCTAATCTTTCTGTTCAAGCGCCATCTAC,3.5
14,GATGATTGTTCTCCCAGCTGATGAATTAACGTACTCGAGTAAACAAATTTTCCTAATCTTTCTGTTCAAGCGCCATCTAC,0.434
15,GATGATTGTTCTCCCAGCTGATGAATTCGATCTTTCGAGTAAACAAATTTTCCTAATCTTTCTGTTCAAGCGCCATCTAC,0.315
16,GATGATTGTTCTCCCAGCTGATGAATTTCGCCACTCGAGTAAACAAATTTTCCTAATCTTTCTGTTCAAGCGCCATCTAC,5.74
17,GATGATTGTTCTCCCAGCTGATGAATTGCACTTGTCGAGTAAACAAATTTTCCTAATCTTTCTGTTCAAGCGCCATCTAC,1.28
18,GATGATTGTTCTCCCAGCTGATGAATTTTCACGATCGAGTAAACAAATTTTCCTAATCTTTCTGTTCAAGCGCCATCTAC,0.215
19,GATGATTGTTCTCCCAGCTGATGAATTTGTAATCTCGAGTAAACAAATTTTCCTAATCTTTCTGTTCAAGCGCCATCTAC,3.82
20,GATGATTGTTCTCCCAGCTGATGAATTTATGGGGTCGAGTAAACAAATTTTCCTAATCTTTCTGTTCAAGCGCCATCTAC,1.33
21,GATGATTGTTCTCCCAGCTGATGAATTGGTTGAATCGAGTAAACAAATTTTCCTAATCTTTCTGTTCAAGCGCCATCTAC,0.407
